# Laboratory results taken from the supplement of paper PMC12217912.
# The other results are listed elsewhere or left out. Sequences were assembled here from the parent chain. Inactive controls read about 0.05.
# B1: TEV protease; numbered along this chain (parent)
# chain: MGESLFKGPRDYNPISSSICHLTNESDGHTTSLYGIGFGPFIITNKHLFRRNNGTLVVQSLHGVFKVKDTTTLQQHLVDGRDMIIIRMPKDFPPFPQKLKFREPQREERICLVTTNFQTKSMSSMVSDTSCTFPSGDGIFWKHWIQTKDGQCGSPLVSTRDGFIVGIHSASNFTNTNNYFTSVPKNFMELLTNQEAQQWVSGWRLNADSVLWGGHKVFMVKPEEPFQPVKEATQL
# Variants of: B1
# Assay: raw area under fraction-flipped curve 0-4 h after induction (AUC4h, not background-subtracted), DNA-recorder readout of cleavage of the substrate (dimensionless); higher = more cleavage of the substrate by the protease variant
# Conditions: temperature: 34 °C; time window: 0-4 h after rhamnose induction
# Method: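 In vivo DNA recorder in E. coli TOP10(DE3) ΔrhaA at 34 °C. Each TEVp single-site mutant (parent TEVp 0) is paired with a single-site variant of the 7-mer TEVs (canonical ENLYFQ|S). The substrate sits between flexible linkers in a Bxb1-sfGFP-TEVs-SsrA fusion, so cleavage stabilises Bxb1 and speeds flipping of a recombination array, read by NGS. The value is the raw area under the fraction-flipped curve over 0-4 h after rhamnose induction (AUC4h), with ≥20 reads per time point. It is not background-subtracted; inactive controls average about 0.047.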
# 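Further: Bxb1 expression induced with 0.2% (w/v) L-rhamnose at OD600 near 0.5, cultures sampled hourly, flipped fraction per protease–substrate barcode pair counted by paired-end Illumina sequencing.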
Variant,area with substrate ENAYFQS,area with substrate ENDYFQS,area with substrate ENEYFQS,area with substrate ENFYFQS,area with substrate ENGYFQS,area with substrate ENHYFQS,area with substrate ENPYFQS,area with substrate ENQYFQS,area with substrate ENRYFQS,area with substrate ENSYFQS,area with substrate ENTYFQS,area with substrate ENVYFQS,area with substrate ENYYFQS,area with substrate ENCYFQS,area with substrate ENIYFQS,area with substrate ENKYFQS,area with substrate ENMYFQS,area with substrate ENNYFQS,area with substrate ENWYFQS
MGESLFKGPRDYNPISSSICHLTNESDGHTTSLYGIGFGPFIITNKHLFRRNNGTLVVQSLHGVFKVKDTTTLQQHLVDGRDMIIIRMPKDFPPFPQKLKFREPQREERICLVTTNFQTKSMSSMVSDTSCTFPSGDGIFWKHWIQTKDKQCGSPLVSTRDGFIVGIHSASNFTNTNNYFTSVPKNFMELLTNQEAQQWVSGWRLNADSVLWGGHKVFMVKPEEPFQPVKEATQL [G150K],0.0723,0.0706,0.066,0.0533,0.0652,0.0589,0.0517,0.0692,0.0711,0.0648,0.0534,0.0289,0.0583,–,–,–,–,–,–
MGESLFKGPRDYNPISSSICHLTNESDGHTTSLYGIGFGPFIITNKHLFRRNNGTLVVQSLHGVFKVKDTTTLQQHLVDGRDMIIIRMPKDFPPFPQKLKFREPQREERICLVTTNFQTKSMSSMVSDTSCTFPSGDGIFWKHWIQTKDRQCGSPLVSTRDGFIVGIHSASNFTNTNNYFTSVPKNFMELLTNQEAQQWVSGWRLNADSVLWGGHKVFMVKPEEPFQPVKEATQL [G150R],0.0655,0.0616,0.0626,0.0728,0.0658,–,–,0.0623,0.0522,0.0624,0.0619,0.0518,0.0583,0.0571,0.0611,0.0638,0.0525,0.0598,–
MGESLFKGPRDYNPISSSICHLTNESDGHTTSLYGIGFGPFIITNKHLFRRNNGTLVVQSLHGVFKVKDTTTLQQHLVDGRDMIIIRMPKDFPPFPQKLKFREPQREERICLVTTNFQTKSMSSMVSDTSCTFPSGDGIFWKHWIQTKDGQSGSPLVSTRDGFIVGIHSASNFTNTNNYFTSVPKNFMELLTNQEAQQWVSGWRLNADSVLWGGHKVFMVKPEEPFQPVKEATQL [C152S],0.0546,0.0554,0.0636,–,0.0665,0.0598,–,0.0639,0.0407,0.069,–,0.0654,0.0496,–,–,0.0564,0.0576,0.074,–
MGESLFKGPRDYNPISSSICHLTNESDGHTTSLYGIGFGPFIITNKHLFRRNNGTLVVQSLHGVFKVKDTTTLQQHLVDGRDMIIIRMPKDFPPFPQKLKFREPQREERICLVTTNFQTKSMSSMVSDTSCTFPSGDGIFWKHWIQTKDGQCGSALVSTRDGFIVGIHSASNFTNTNNYFTSVPKNFMELLTNQEAQQWVSGWRLNADSVLWGGHKVFMVKPEEPFQPVKEATQL [P155A],0.0599,0.06,0.0489,0.0687,0.0763,0.0555,0.0593,0.0555,–,0.0629,0.0636,0.0884,–,0.0621,0.153,0.0305,–,0.0646,0.0555
MGESLFKGPRDYNPISSSICHLTNESDGHTTSLYGIGFGPFIITNKHLFRRNNGTLVVQSLHGVFKVKDTTTLQQHLVDGRDMIIIRMPKDFPPFPQKLKFREPQREERICLVTTNFQTKSMSSMVSDTSCTFPSGDGIFWKHWIQTKDGQCGSLLVSTRDGFIVGIHSASNFTNTNNYFTSVPKNFMELLTNQEAQQWVSGWRLNADSVLWGGHKVFMVKPEEPFQPVKEATQL [P155L],0.0547,0.0393,0.0515,0.0475,0.0523,0.0542,0.0479,0.0567,0.0491,0.0485,–,0.0847,–,0.0505,0.0519,0.0621,0.0514,0.055,–
MGESLFKGPRDYNPISSSICHLTNESDGHTTSLYGIGFGPFIITNKHLFRRNNGTLVVQSLHGVFKVKDTTTLQQHLVDGRDMIIIRMPKDFPPFPQKLKFREPQREERICLVTTNFQTKSMSSMVSDTSCTFPSGDGIFWKHWIQTKDGQCGSSLVSTRDGFIVGIHSASNFTNTNNYFTSVPKNFMELLTNQEAQQWVSGWRLNADSVLWGGHKVFMVKPEEPFQPVKEATQL [P155S],0.053,0.0527,0.0505,0.0629,0.049,0.0552,0.0588,0.0503,0.0584,0.0559,0.0532,0.0478,0.0441,0.0615,0.0494,0.0482,0.048,0.0627,0.0569
MGESLFKGPRDYNPISSSICHLTNESDGHTTSLYGIGFGPFIITNKHLFRRNNGTLVVQSLHGVFKVKDTTTLQQHLVDGRDMIIIRMPKDFPPFPQKLKFREPQREERICLVTTNFQTKSMSSMVSDTSCTFPSGDGIFWKHWIQTKDGQCGSWLVSTRDGFIVGIHSASNFTNTNNYFTSVPKNFMELLTNQEAQQWVSGWRLNADSVLWGGHKVFMVKPEEPFQPVKEATQL [P155W],0.0641,0.0598,0.0709,0.0671,0.0564,–,–,0.0568,–,0.0609,0.0346,0.0422,0.0589,0.0514,0.0634,0.0959,0.0685,0.0364,0.0515
MGESLFKGPRDYNPISSSICHLTNESDGHTTSLYGIGFGPFIITNKHLFRRNNGTLVVQSLHGVFKVKDTTTLQQHLVDGRDMIIIRMPKDFPPFPQKLKFREPQREERICLVTTNFQTKSMSSMVSDTSCTFPSGDGIFWKHWIQTKDGQCGSPWVSTRDGFIVGIHSASNFTNTNNYFTSVPKNFMELLTNQEAQQWVSGWRLNADSVLWGGHKVFMVKPEEPFQPVKEATQL [L156W],0.0502,0.0591,0.0663,0.0618,0.0561,0.0573,0.0505,0.0623,0.0572,0.0591,0.0603,0.067,0.0535,0.0624,0.0516,0.0597,0.056,0.0567,0.0322
MGESLFKGPRDYNPISSSICHLTNESDGHTTSLYGIGFGPFIITNKHLFRRNNGTLVVQSLHGVFKVKDTTTLQQHLVDGRDMIIIRMPKDFPPFPQKLKFREPQREERICLVTTNFQTKSMSSMVSDTSCTFPSGDGIFWKHWIQTKDGQCGSPLVSTRCGFIVGIHSASNFTNTNNYFTSVPKNFMELLTNQEAQQWVSGWRLNADSVLWGGHKVFMVKPEEPFQPVKEATQL [D161C],0.0567,0.0508,0.0578,0.0497,0.0352,0.056,0.0496,0.0604,0.0517,0.0543,0.0525,0.0566,0.057,0.039,0.0698,0.0584,0.0586,0.0617,–
